# Test results as given in the supplement of paper PMC8728848.
# The list shows a part of the results.
# B1: RVL (Remusatia vivipara), B5LYJ9 (protein)
# chain: MAKLLLFLLPAILGLLVPRSAVALGTNYLLSGQTLDTEGHLKNGDFDLVMQDDCNLVLYNGNWQSNTANNGRDCKLTLTDYGELVIKNGDGSTVWKSGAQSVKGNYAAVVHPDGRLVVLGPSVFKIDPWVRGLNSLRFRNIPFTNNLLFSGQVLYGDGRLTAKNHQLVMQGDCNLVLYGGKYGWQSNTHGNGEHCFLRLNHKGELIIKDDDFKTIWSSRSSSKQGEYVLILQDDGFGVIYGPAIFETSSKRSIAAS
# Experiments:
# Test in all cases: glycan array binding signal (z-score within array); higher = stronger binding
# Details in all cases: glycan notation: IUPAC condensed, linker removed
# [1] = target: Neu5Ac(a2-3)Gal(b1-3)GalNAc
# Outline: (§1)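 Arrays were curated from the Consortium for Functional Glycomics database, 3228 in total, and kept only where the protein sequence was available. Binding is expressed as a within-array Z-score. This score was averaged across arrays of the same protein sequence at different concentrations or buffers and across linkers, and negative values can be read as non-binding.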
# [2] = target: Neu5Ac(a2-3)Gal(b1-3)GalNAc(b1-3)Gal(a1-4)Gal(b1-4)Glc
# Outline: as §1
# [3] = target: Neu5Ac(a2-3)Gal(b1-3)GalNAc(b1-4)[Neu5Ac(a2-3)]Gal(b1-4)Glc
# Outline: as §1
# [4] = target: Neu5Ac(a2-3)Gal(b1-3)GalNAc(b1-4)[Neu5Ac(a2-8)Neu5Ac(a2-3)]Gal(b1-4)Glc
# Outline: as §1
# [5] = target: Neu5Ac(a2-3)Gal(b1-3)GalNAc6S
# Outline: as §1
# [6] = target: Neu5Ac(a2-3)Gal(b1-3)GlcNAc
# Outline: as §1
# [7] = target: Neu5Ac(a2-3)Gal(b1-3)GlcNAc(b1-2)Man(a1-3)[GlcNAc(b1-4)][Neu5Ac(a2-3)Gal(b1-3)GlcNAc(b1-2)Man(a1-6)]Man(b1-4)GlcNAc(b1-4)GlcNAc
# Outline: as §1
# [8] = target: Neu5Ac(a2-3)Gal(b1-3)GlcNAc(b1-3)Gal(b1-3)GlcNAc
# Outline: as §1
# [9] = target: Neu5Ac(a2-3)Gal(b1-3)GlcNAc(b1-3)Gal(b1-4)GlcNAc
# Outline: as §1
# [10] = target: Neu5Ac(a2-3)Gal(b1-3)GlcNAc(b1-3)GalNAc
# Outline: as §1
# [11] = target: Neu5Ac(a2-3)Gal(b1-3)GlcNAc(b1-6)GalNAc
# Outline: as §1
# [12] = target: Neu5Ac(a2-3)Gal(b1-3)GlcNAc6S
# Outline: as §1
# [13] = target: Neu5Ac(a2-3)Gal(b1-3)[Fuc(a1-4)]GlcNAc
# Outline: as §1
# [14] = target: Neu5Ac(a2-3)Gal(b1-3)[Fuc(a1-4)]GlcNAc(b1-3)Gal(b1-3)[Fuc(a1-4)]GlcNAc
# Outline: as §1
# [15] = target: Neu5Ac(a2-3)Gal(b1-3)[Fuc(a1-4)]GlcNAc(b1-3)Gal(b1-4)[Fuc(a1-3)]GlcNAc
# Outline: as §1
# [16] = target: Neu5Ac(a2-3)Gal(b1-3)[Neu5Ac(a2-3)Gal(b1-4)]GlcNAc
# Outline: as §1
# [17] = target: Neu5Ac(a2-3)Gal(b1-3)[Neu5Ac(a2-6)]GalNAc
# Outline: as §1
# [18] = target: Neu5Ac(a2-3)Gal(b1-3)[Neu5Ac(a2-6)]GlcNAc(b1-3)[Fuc(a1-3)[Gal(b1-4)]GlcNAc(b1-6)]Gal(b1-4)Glc
# Outline: as §1
# [19] = target: Neu5Ac(a2-3)Gal(b1-4)Glc
# Outline: as §1
# [20] = target: Neu5Ac(a2-3)Gal(b1-4)GlcNAc
# Outline: as §1
# [21] = target: Neu5Ac(a2-3)Gal(b1-4)GlcNAc(b1-2)Man
# Outline: as §1
# [22] = target: Neu5Ac(a2-3)Gal(b1-4)GlcNAc(b1-2)Man(a1-3)[GlcNAc(b1-2)Man(b1-4)GlcNAc(b1-2)Man(a1-6)]Man(b1-4)GlcNAc(b1-4)GlcNAc
# Outline: as §1
# [23] = target: Neu5Ac(a2-3)Gal(b1-4)GlcNAc(b1-2)Man(a1-3)[Neu5Ac(a2-3)Gal(b1-4)GlcNAc(b1-2)Man(a1-6)]Man(b1-4)GlcNAc(b1-4)[Fuc(a1-6)]GlcNAc
# Outline: as §1
# [24] = target: Neu5Ac(a2-3)Gal(b1-4)GlcNAc(b1-2)Man(a1-3)[Neu5Ac(a2-6)Gal(b1-4)GlcNAc(b1-2)Man(a1-6)]Man(b1-4)GlcNAc(b1-4)GlcNAc
# Outline: as §1
# [25] = target: Neu5Ac(a2-3)Gal(b1-4)GlcNAc(b1-2)[Neu5Ac(a2-3)Gal(b1-4)GlcNAc(b1-6)]Man(a1-6)[Neu5Ac(a2-3)Gal(b1-4)GlcNAc(b1-2)Man(a1-3)]Man(b1-4)GlcNAc(b1-4)GlcNAc
# Outline: as §1
# [26] = target: Neu5Ac(a2-3)Gal(b1-4)GlcNAc(b1-3)Gal
# Outline: as §1
# [27] = target: Neu5Ac(a2-3)Gal(b1-4)GlcNAc(b1-3)Gal(b1-3)GlcNAc
# Outline: as §1
# [28] = target: Neu5Ac(a2-3)Gal(b1-4)GlcNAc(b1-3)Gal(b1-4)GlcNAc
# Outline: as §1
# [29] = target: Neu5Ac(a2-3)Gal(b1-4)GlcNAc(b1-3)Gal(b1-4)GlcNAc(b1-3)Gal(b1-4)GlcNAc
# Outline: as §1
# [30] = target: Neu5Ac(a2-3)Gal(b1-4)GlcNAc(b1-3)Gal(b1-4)[Fuc(a1-3)]GlcNAc
# Outline: as §1
# [31] = target: Neu5Ac(a2-3)Gal(b1-4)GlcNAc(b1-3)GalNAc
# Outline: as §1
# [32] = target: Neu5Ac(a2-3)Gal(b1-4)GlcNAc(b1-3)[Neu5Ac(a2-3)Gal(b1-4)GlcNAc(b1-6)]GalNAc
# Outline: as §1
# [33] = target: Neu5Ac(a2-3)Gal(b1-4)GlcNAc(b1-6)GalNAc
# Outline: as §1
# [34] = target: Neu5Ac(a2-3)Gal(b1-4)GlcNAc(b1-6)[Gal(b1-3)]GalNAc
# Outline: as §1
# [35] = target: Neu5Ac(a2-3)Gal(b1-4)GlcNAc(b1-6)[Neu5Ac(a2-3)Gal(b1-3)]GalNAc
# Outline: as §1
# [36] = target: Neu5Ac(a2-3)Gal(b1-4)GlcNAc6S
# Outline: as §1
# [37] = target: Neu5Ac(a2-3)Gal(b1-4)[Fuc(a1-3)]GlcNAc
# Outline: as §1
binder,measurement,setting,value
B1,glycan array binding signal (z-score),[1],-0.165
same,glycan array binding signal (z-score),[2],0.083
same,glycan array binding signal (z-score),[3],-0.145
same,glycan array binding signal (z-score),[4],-0.232
same,glycan array binding signal (z-score),[5],-0.236
same,glycan array binding signal (z-score),[6],-0.018
same,glycan array binding signal (z-score),[7],-0.08
same,glycan array binding signal (z-score),[8],0.064
same,glycan array binding signal (z-score),[9],-0.264
same,glycan array binding signal (z-score),[10],-0.045
same,glycan array binding signal (z-score),[11],-0.116
same,glycan array binding signal (z-score),[12],0.14
same,glycan array binding signal (z-score),[13],-0.213
same,glycan array binding signal (z-score),[14],-0.179
same,glycan array binding signal (z-score),[15],-0.066
same,glycan array binding signal (z-score),[16],-0.281
same,glycan array binding signal (z-score),[17],0.017
same,glycan array binding signal (z-score),[18],-0.131
same,glycan array binding signal (z-score),[19],-0.136
same,glycan array binding signal (z-score),[20],-0.239
same,glycan array binding signal (z-score),[21],-0.045
same,glycan array binding signal (z-score),[22],0.071
same,glycan array binding signal (z-score),[23],-0.725
same,glycan array binding signal (z-score),[24],-0.062
same,glycan array binding signal (z-score),[25],3.54
same,glycan array binding signal (z-score),[26],-0.103
same,glycan array binding signal (z-score),[27],-0.012
same,glycan array binding signal (z-score),[28],-0.291
same,glycan array binding signal (z-score),[29],-0.245
same,glycan array binding signal (z-score),[30],-0.066
same,glycan array binding signal (z-score),[31],-0.104
same,glycan array binding signal (z-score),[32],0.1
same,glycan array binding signal (z-score),[33],-0.443
same,glycan array binding signal (z-score),[34],0.083
same,glycan array binding signal (z-score),[35],0.058
same,glycan array binding signal (z-score),[36],-0.033
same,glycan array binding signal (z-score),[37],-0.187
